Results: paper PMC3880688 (ACS chemical biology, 2013)

Experiments:
HDAC3-SMRT-DAD complex [1] = target: T1, HDAC3-SMRT-DAD complex (Homo sapiens, UniProt O15379); assay: photocrosslinking / biotinylation of recombinant HDAC3-SMRT-DAD complex; conditions: all Ins(1,4,5,6)P4 concentrations, with or without monoazide 5
HDAC3-SMRT-DAD complex [2] = target: T1, HDAC3-SMRT-DAD complex; assay: saturation transfer difference; type: binding; conditions: 1 μM complex; probe 7 100 μM; Ins(1,4,5,6)P4 25 μM
[3] = target: recombinant human HDAC3-SMRT-DAD (Homo sapiens, UniProt O15379); assay: competitive fluorescence-based deacetylase assay; type: biochemical; conditions: 0.1, 1, 10 μM; 5 min and 3 h pre-incubation

SMILES: O=P(O)(O)O[C@H]1[C@H](OP(=O)(O)O)[C@@H](OP(=O)(O)O)[C@@H](O)[C@@H](O)[C@@H]1OP(=O)(O)O [Ins(1,4,5,6)P4, D-myo-inositol-(1,4,5,6)-tetrakisphosphate, reference compound]
- effect on photolabeling of HDAC3 or SMRT-DAD with probe 1 (HDAC3-SMRT-DAD complex [1]): no statistically significant effect
- STD NMR response / binding to the complex (HDAC3-SMRT-DAD complex [2]): binds to the HDAC3-SMRT-DAD complex
- effect on enzymatic activity of HDAC3-SMRT-DAD [3]: does not inhibit the enzymatic activity
